# The list shows a part of the results.
# B1: chr9:34635388:34635489:-|3pUTR|ENSG00000147955|msi1|total|mutant (ssRNA)
# RNA: GGGAGUUCUACAGUCCGACGAUCGGGAUAUCCAUGCUUAUGUAUCCAAACACAGAGACCCAUGGGAACAAAUGAGACACAUACCGAUACUGAGACCUGUGUGUACAGCCGGACCAUGCACUCACACCCAUCUGGAGAGGGAGCCAACAGAGGAUUGAGCAUCA
# B2: chr3:10101824:10101929:+|3pUTR|ENSG00000144554|unk|FALSE|unique (ssRNA)
# RNA: GGGAGUUCUACAGUCCGACGAUCAAAAUCUCUGAGUCAUGAUUCUGGACUUUGGGAGCUAGUUUUGAAACUCUGAUUUAUUGUAGAACUUAGGCUUGUACCAAUUUUACAAAUAAAUUCUGUUCUAAGUUCUGCCUCAGUUGCCAACAGAGGAUUGAGCAUCA
# B3: chr17:63766011:63766126:-|CDS|ENSG00000108588|unk|FALSE|unique (ssRNA)
# RNA: GGGAGUUCUACAGUCCGACGAUCGGUGUUUGGGAGUGUCUCUGAAGCCAAGUUUGAUGAUUUUGAGGAUGAGGAGGACAUAGUAGAGUAUGAUGAUAAUGACUUCGCUGAAUUUGAGGAUGUCAUGGAAGACUCUGUUACUGACAACAGAGGAUUGAGCAUCA
# B4: chr4:48851844:48851957:+|CDS|ENSG00000109180|unk|FALSE|unique (ssRNA)
# RNA: GGGAGUUCUACAGUCCGACGAUCAUAUGACUCAAGUGUGAGUGGUCAAUCAUCUUUUGUGACAUCCCCAGCAGCAGACAACAUAGAAAUGCUUCCUCAUUAUGAGCCAAUUCCAUUCAGUUCUUCUAUGAAUGAAUCUGCUCCCAACAGAGGAUUGAGCAUCA
# B5: chr19:41259979:41260080:+|3pUTR|ENSG00000167601|msi1|FALSE|unique (ssRNA)
# RNA: GGGAGUUCUACAGUCCGACGAUCCCUGUCUUCCUACCUAUCCCACCUCCAUCCCAGACAGGUCCCUCCCCUUCUCUGUGCAGUAGCAUCACCUUGAAAGCAGUAGCAUCACCAUCUGUAAAAGGAAGGGGUUGGAUUGCAAUACAACAGAGGAUUGAGCAUCA
# B6: chr1:227780961:227781062:+|3pUTR|ENSG00000143740|unk|total|mutant (ssRNA)
# RNA: GGGAGUUCUACAGUCCGACGAUCCCUGGAAGAGGCCGCCCUCGUCUUGUCUCGGCUCCCUUUCAUGGACAGACUGGCCUUCUCCGCUGUACUAUAAAUUUGUGAGUGAAGUCCGAGCCCAGCUCACUCCGCCAGCUCACUUUGCAACAGAGGAUUGAGCAUCA
# B7: chr4:183512276:183512377:+|3pUTR|ENSG00000168556|unk|FALSE|unique (ssRNA)
# RNA: GGGAGUUCUACAGUCCGACGAUCCUGCUUGUUUUGGGAAAAAAAAAUGCUUUUUUUCUCUUCUAGCUCUCCUGUGUGACUUUUAGGCAUGUCAUUUCACCUUGUCUGGGUGUCAGGUCAUUCACCUGUAAAAUGAGUUGGCUUCAACAGAGGAUUGAGCAUCA
# B8: chr9:125437660:125437767:-|3pUTR|ENSG00000119487|unk|FALSE|unique (ssRNA)
# RNA: GGGAGUUCUACAGUCCGACGAUCUGAUGUCCUUACUGUCCCCAGCCAGGGCCGGGGACCGGUGUUUCACUGAGGACCUGCAUUAGAAACAUUUUUUAAAUUGUUGUACAGGAAGAGAUGUGUCUAAAACAGCAUCUUAAAGCUCAACAGAGGAUUGAGCAUCA
# B9: chrX:41141081:41141111:+|CDS|ENSG00000124486|msi1_unk|FALSE|overlapping (ssRNA)
# RNA: GGGAGUUCUACAGUCCGACGAUCCACUCUUCAUACAGUGAAAAAGUACUUUCUUCCAAUAAUAGAAAUGGUUCCACAGUUUUUAGAAAACUUAACUGAUGAAGAACUGAAAAAAGAAGCAAAGAAUGAAGCCAAAAAUGAUGCCAACAGAGGAUUGAGCAUCA
# B10: chr7:30424526:30425710:-|three_prime_utr|ENSG00000106100|control|control|control (ssRNA)
# RNA: GGGAGUUCUACAGUCCGACGAUCAAACUCCCUAAGUACCCGCUACAAUUCUGCAGAAAAAGAAUGUGUCUUGCGAGCUGUUGUAGUUACAGUAAAUACACUGUGAAGAGACUUUAUUGCCUAUUAUAAUUAUUUUUAUCUGAACAACAGAGGAUUGAGCAUCA
# B11: ENSG00000136451:be:win_351|CDS|ENSG00000136451|bound_else_gene|NA|bound_elsewhere_windowed (ssRNA)
# RNA: GGGAGUUCUACAGUCCGACGAUCUACCAUCGCUGGGGACAGCAGCCGAACUUCGUUGGUCUCGACCAUUGCAGGCAUCUUGUCAACAGUCACUACAUCUUCCUCGGGCACCAACCCCAGUAGCAGUGCCAGCACCACAGCUAUCAACAGAGGAUUGAGCAUCA
# B12: chr16:14644374:14644495:+|CDS|ENSG00000103429|unk|total|mutant (ssRNA)
# RNA: GGGAGUUCUACAGUCCGACGAUCAACACAAUGGACCUUGAGAGAGAUGAACCUCUCAAAAGCACCGGCCCUCAGAUUUCUGUCCGUGAAUUUUCUUGCCACUGCUGCUACGACAUCCUGGUUAACCCCACCACCUUGAACUGUCAACAGAGGAUUGAGCAUCA
# B13: chr1:11013840:11013957:+|CDS|ENSG00000120948|unk|total|mutant (ssRNA)
# RNA: GGGAGUUCUACAGUCCGACGAUCGGCGUGUGGGCUUCGCUACAGGAAUCCAGUGUCUCAGUGUAUGAGAGGUGUCCGGCUGGCCGAAGGAAUUCUGCAUGCCCCAGAUGCUGGCUGGGGAAAUCUGGUGUAUGUUGUCAACUACAACAGAGGAUUGAGCAUCA
# B14: chr17:68278117:68278284:-|CDS|ENSG00000108932|unk|FALSE|unique (ssRNA)
# RNA: GGGAGUUCUACAGUCCGACGAUCGCUUUGUUCCAAAGCCAAUGUGUAUACUGAAGUGCCUGAUGGAGGAUGGGGCUGGGCGGUAGCUGUUUCAUUUUUCUUCGUUGAAGUCUUCACCUACGGCAUCAUCAAGACAUUUGGUGUCAACAGAGGAUUGAGCAUCA
# Biological target: MSI1 full-length (mouse, UniProt Q61474 1-362)
# UniProt Q61474, sequence (Q61474 whole entry): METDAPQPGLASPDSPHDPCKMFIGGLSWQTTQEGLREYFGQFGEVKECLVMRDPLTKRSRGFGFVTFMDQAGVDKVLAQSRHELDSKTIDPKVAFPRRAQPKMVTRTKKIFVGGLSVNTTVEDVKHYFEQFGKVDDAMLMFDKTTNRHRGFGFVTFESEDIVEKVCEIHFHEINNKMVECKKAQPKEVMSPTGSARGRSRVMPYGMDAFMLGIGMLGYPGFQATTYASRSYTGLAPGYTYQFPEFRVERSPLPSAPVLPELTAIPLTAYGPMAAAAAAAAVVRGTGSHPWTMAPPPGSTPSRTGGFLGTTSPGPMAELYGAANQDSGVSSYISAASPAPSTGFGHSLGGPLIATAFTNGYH
# Assay: nsRBNS (natural sequence RNA bind-n-seq); RBNS binding buffer (assumed for nsRBNS): 25 mM Tris pH 7.5, 150 mM KCl, 3 mM MgCl2, 0.01% Triton X-100, 500 ug/ml BSA, 20 U/ml SUPERase-In, 4 C; UNK is unkempt and MSI1 is Musashi-1; names of the RNAs are library labels; protein concentration not given here; high values mean tight binding
row,Binder,binding signal [enrichment R]
1,B1,0.561
2,B2,0.376
3,B3,0.458
4,B4,0.341
5,B5,0.891
6,B6,0.459
7,B7,0.321
8,B8,0.359
9,B9,2.68
10,B10,3.46
11,B11,0.413
12,B12,0.46
13,B13,0.587
14,B14,0.463
